Measurements: PubChem BioAssay AID624417 (National Center for Advancing Translational Sciences (NCATS), 2012)
Out of some 410,000 compounds screened, about 6,400 (1.6%) were called active. The inconclusive results got no clear call from the source; some entries with a clear call stand among them for comparison. Calls come from the whole dose curve; as a rule, active = well fitted inhibition curve with a large enough effect; inconclusive = small, poorly fitted or top-dose-only effect; inactive = no such curve, though single readings can be large or run the other way. No potency is given beside an inconclusive call; the fits are too rough.

molecular target: Glucagon-like peptide 1 receptor (Homo sapiens) (UniProt P43220); test: qHTS of GLP-1 Receptor Inverse Agonists (Inhibition Mode); conditions: HEK293 GLP-1R CRE-luciferase, luminescence, 24 h, GLP-1R form is constitutively active; activity change, negative = inhibition: at 38.3 µM (top of the series) unless noted; note: nearly all actives have a fitted effect of over 55% in size
UniProt P43220, sequence (P43220 whole entry, looked up): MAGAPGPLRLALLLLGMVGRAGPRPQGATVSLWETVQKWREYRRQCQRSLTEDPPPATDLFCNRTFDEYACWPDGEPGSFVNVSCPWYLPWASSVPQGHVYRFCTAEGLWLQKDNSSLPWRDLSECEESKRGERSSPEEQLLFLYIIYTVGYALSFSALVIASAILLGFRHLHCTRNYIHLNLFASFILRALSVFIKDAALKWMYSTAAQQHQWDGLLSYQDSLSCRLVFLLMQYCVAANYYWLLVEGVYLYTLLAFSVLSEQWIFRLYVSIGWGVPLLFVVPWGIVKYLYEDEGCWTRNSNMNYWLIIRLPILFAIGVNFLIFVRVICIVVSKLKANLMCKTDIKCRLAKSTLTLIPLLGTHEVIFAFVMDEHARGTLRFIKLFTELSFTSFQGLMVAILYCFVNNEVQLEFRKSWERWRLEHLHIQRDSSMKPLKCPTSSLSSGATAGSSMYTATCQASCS
How it was run: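 Using stably transfected HEK293 (constitutively active GLP-1R, cAMP-luciferase reporter), compounds were incubated 24 hr and luciferase measured by luminescence.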
% is set by controls: 0 for no effect and ±100 for the full control effect; potency is the fitted concentration of half-maximal effect; tags give direction and shape of the fitted curve.

SMILES | Potency | activity change, negative = inhibition
CCc1cc(-c2nnn(-c3cc(C(C)C)ccc3C)c2CC)ccc1-c1cn(CCc2c[nH]c3ccccc23)nn1 | active: 2.51 µM | –
COc1cc(C(=O)NC(C)c2ccc3ccccc3c2)cc(Cl)c1O (stereo not given) | inconclusive [inhibitor, single point] | –
Cc1ccc[n+](C(C)C(=O)Nc2ccc(C)c([N+](=O)[O-])c2)c1 (stereo not given) | inactive | –
Cn1ccnc1SCCNC(=O)CCc1nnc(CCc2ccccc2)o1 | inactive | –
COc1ccccc1CNC(=O)C1CC(c2c(Cl)cccc2Cl)=NO1 (stereo not given) | inconclusive [inhibitor, partial curve, poor fit] | –
O=Cc1ccccc1OCCCOc1cccc2cccnc12 | inconclusive [inhibitor, single point] | –
O=C(NCc1cccs1)C1CCCN(C(=O)Nc2ccccc2)C1 (stereo not given) | inconclusive [inhibitor, partial curve, poor fit] | –
CC(C)NC(=O)C1C(c2ccc(C(F)(F)F)cc2)=Nc2ccccc2N1C(=O)c1cccc2ccccc12 (stereo not given) | inconclusive [inhibitor, partial curve, poor fit] | –
Clc1cccc(Nc2nc(N3CCOCC3)nc(N3CCOCC3)n2)c1 | inconclusive [inhibitor, partial curve, poor fit] | –
CSCCNC(=O)c1ccc(C(C)(C)C)cc1 | inconclusive [inhibitor, single point] | –
CCOC(=O)N1CCN(C(=O)C[C@@H]2C[C@@]3(C(=O)OC)CCCCC=C3N(Cc3cccc4ccccc34)C2=O)CC1 | inconclusive [inhibitor, partial curve, poor fit] | –
CCCCCOc1ccc(C(C)(O)C(CN2CCOCC2)c2ccccc2)cc1 (stereo not given) | inconclusive [inhibitor, single point] | –
CC1CCN(CCCn2c(=S)[nH]c3c(sc4ccccc43)c2=O)CC1 | – | inactive: 0.051% [at 7.66 µM]
COc1cccc(NC(=O)c2nn(C)c(C(=O)Nc3cccc(OC)c3)c2[N+](=O)[O-])c1 | inconclusive [inhibitor, single point] | –
O=C(OCC(=O)C12CC3CC(CC(C3)C1)C2)c1ccc(O)cc1O | active: 11.2 µM | –
CC(C(=O)N1CCc2ccccc21)N(C)CC(=O)Nc1cccc(F)c1 (stereo not given) | inconclusive [inhibitor, partial curve, poor fit] | –
Cn1ccc2cc(S(=O)(=O)N3CCC(C(=O)NCCc4ccccc4)CC3)ccc21 | inactive | –
CCOC(=O)C1=CC[C@@H](c2ccccc2)N(S(=O)(=O)c2ccc(C)cc2)[C@H]1C=C(C)C | inconclusive [inhibitor, single point] | –
Cc1ccc(NC(=O)CNC(=O)c2cccc(C)c2)nc1 | inconclusive [inhibitor, single point] | –
COc1cccc(NC(=O)CSC2=NN3CCCC(=O)N=C3S2)c1 | inconclusive [inhibitor, single point] | –

SMILES | Potency | activity change, negative = inhibition
Cc1ccc(CNC(=O)c2ccc3c(c2)nc(C)n3-c2cc(C)cc(C)c2)cc1 | inconclusive [inhibitor, single point] | –
Cc1c(C(=O)NCc2cccc(Cl)c2)sc(=O)n1Cc1cccc(F)c1 | inconclusive [inhibitor, partial curve, poor fit] | –
C=CCNC(=S)NNc1ncnc2sc3c(c12)CC(C)(C)OC3 | inconclusive [inhibitor, full curve, poor fit] | –
COc1ccc(CCNCC(O)Cn2ccc3ccccc32)cc1OC (stereo not given) | inconclusive [inhibitor, partial curve, poor fit] | –
Cc1ccc(-n2nc3c(c2NC(=O)/C=C\c2ccc4c(c2)OCO4)CSC3)cc1 | inconclusive [inhibitor, single point] | –
CCOC(=O)c1c(C)oc2ncnc(Nc3ccc(OCC)cc3)c12 | inactive | –
C=CCN(CC=C)S(=O)(=O)c1ccc(NC(=O)COc2ccccc2OC)cc1 | inconclusive [inhibitor, partial curve, poor fit] | –
O=C(NCCCO)c1cc2c([nH]c3ccccc32)c(-c2ccc(F)cc2)n1 | inconclusive [inhibitor, single point] | –
Cc1ccc(C)n1-c1nnc(N2CCCC(C(=O)Nc3ccc(C(C)C)cc3)C2)s1 (stereo not given) | inconclusive [inhibitor, single point] | –
CCC1=NN(C(=O)Cc2ccc([N+](=O)[O-])cc2)C(O)(C(F)(F)F)C1 (stereo not given) | inactive | –
COc1ccc(NC(=O)c2cc(F)cc(F)c2)cc1S(=O)(=O)N1CCCCC1 | inconclusive [inhibitor, single point] | –
N#CC1(C#N)OC12CCS(=O)(=O)c1ccccc12 (stereo not given) | inactive | –
COC(=O)c1ccccc1NC(=O)Cn1c(=O)n(Cc2ccc(C(=O)NCc3ccc4c(c3)OCO4)cc2)c(=O)c2ccccc21 | inactive | –
O=C1C2C(C(=O)N1/N=C/c1cc(Br)cc([N+](=O)[O-])c1O)C1C=CC2C12CC2 (stereo not given) | inconclusive [inhibitor, single point] | –
COc1ccccc1N1CCN(C(c2ccccc2Cl)c2nnnn2C(C)(C)C)CC1 (stereo not given) | inconclusive [inhibitor, single point] | –
CN(c1ccccc1)S(=O)(=O)c1cccc(NC(=O)CN2C(=O)NC3(CCCCC3)C2=O)c1 | inconclusive [inhibitor, single point] | –
O=C(O)CN1C(=O)/C(=C\c2cccc(OCc3ccc(Cl)cc3)c2)SC1=S | inactive | –
Cc1c(C(=O)N2c3ccccc3Sc3ccccc32)cccc1[N+](=O)[O-] | active: 1.78 µM | –
O=C(NCc1ccccc1Cl)C(=O)NCC(c1cccs1)S(=O)(=O)c1cccs1 (stereo not given) | inconclusive [inhibitor, partial curve] | –
CCOC(=O)c1c(NC(C)=O)sc2c1CCC(C=O)=C2Sc1ccccc1 | inconclusive [inhibitor, single point] | –
